From PubChem BioAssay AID463173 (ICCB-Longwood Screening Facility, Harvard Medical School, 2010)
Screen size: about 52,000 compounds; about 4,300 (8.3%) were called active. No stated cut-off is given here; in the data, active means survival mostly below about 52% (no sharp cut-off); inactive means mostly above about 56%. Some of the results follow.

System: DeltatarO mutant
Test: growth inhibition of S. aureus wild type versus tarO mutant, primary screen, teichoic acid synthesis inhibitors, RN4220, OD600 (AID 463173)
Conditions: OD600, 18 h, hits give low values, screened at 18.75 µg/mL (by protocol)

Row | SMILES | survival
1 | COc1ccc(C)cc1NC(=O)c1sc2nc(-c3ccc(F)cc3)cn2c1C | inactive: 67%
2 | COc1ccc2c(c1)c(CC(=O)Nc1cc(C)cc(C)c1)c(C)n2C(=O)c1ccc(Cl)cc1 | inactive: 65%
3 | CCN1C(=O)C2C(c3ccc(OC)cc3)NC(CC)(C(=O)OC)C2C1=O (stereo not drawn) | inactive: 56%
4 | CCS(=O)(=O)N1CCN(CC2CC3C=CC2C3)CC1 (stereo not drawn) | inactive: 81%
5 | CCOc1ccccc1NC(=O)Cn1c(=O)n(-c2ccc(C)c(C)c2)c(=O)c2oc3ccccc3c21 | inactive: 65%
6 | O=C(Oc1ccccc1F)c1nc(SCc2ccccc2F)ncc1Cl | inactive: 119%
7 | COc1ccccc1NC(=O)Cn1nc2c3cc(F)ccc3n(Cc3cccc(C)c3)cc-2c1=O | active: -2%
8 | Cc1ccc2oc(C(=O)Nc3ccc(S(=O)(=O)N4CCCCCC4)cc3)cc(=O)c2c1 | inactive: 70%
9 | CCOC(=O)c1cc(C)n(CC2CCC(C(=O)Nc3ccc(OC)c(OC)c3)CC2)c1C (stereo not drawn) | inactive: 93%
10 | CCc1ccc(NC(=O)c2sc(-n3nc(C)c(Cc4ccc5c(c4)OCO5)c3C)nc2C)cc1 | inactive: 77%
11 | Cc1cc(C)cc(NS(=O)(=O)c2c(C)nc3scc(C)n3c2=O)c1 | inactive: 79%
12 | CCN(Cc1ccccc1)C(=O)C1CCC(CNS(=O)(=O)c2ccc3c(c2)CCCC(=O)N3)CC1 (stereo not drawn) | inactive: 112%
13 | Cc1ccc(C)c(NC(=O)c2cc(S(=O)(=O)N3CCN(c4cccc(Cl)c4)CC3)ccc2F)c1 | inactive: 77%
14 | CCc1ccc(Nc2nc3c(S(=O)(=O)c4ccc(C)cc4)nnn3c3ccsc23)cc1 | inactive: 49%
15 | Cc1ccc(S(=O)(=O)c2nnn3c2nc(N2CCCC(C)C2)c2cc(Cl)ccc23)cc1C (stereo not drawn) | inactive: 96%
16 | Cc1ccc(NC(=O)Cn2c(=O)n(-c3ccccc3)c(=O)c3ccc(C(=O)NCc4ccc5c(c4)OCO5)cc32)cc1 | inactive: 114%
17 | CCN(C(=O)Cn1cc(S(=O)(=O)N2CCN(c3ccccc3F)CC2)c2ccccc2c1=O)c1ccc(C)c(C)c1 | inactive: 119%
18 | Oc1c(C(c2ccccc2Cl)N2CCC(O)CC2)sc2nc(-c3ccco3)nn12 (stereo not drawn) | inactive: 95%
19 | O=C(Nc1ccccc1C(F)(F)F)c1noc2c1CCCC2 | inactive: 63%
20 | Cc1ccc(-c2nnn(CC(=O)Nc3cccc4cccnc34)n2)o1 | inactive: 86%
21 | COc1ccc(Nc2ncc3c(n2)CCN(Cc2cccc(F)c2F)C3)c(OC)c1 | inactive: 83%
22 | Cc1ccc2nc(-c3cccc(NC(=O)CSc4ccc(Cl)cc4)c3)oc2c1 | inactive: 56%

Row | SMILES | survival
23 | CC(=O)N1CCCc2cc(S(=O)(=O)NCc3ccccc3Cl)ccc21 | inactive: 112%
24 | Cc1ccc(CN2c3ccccc3-c3nc(SCC(=O)NCCc4ccccc4)ncc3S2(=O)=O)cc1 | inactive: 55%
25 | CCOC(=O)c1cccc(NC(=O)CSc2cc(=O)n(C)c3ccccc23)c1 | inactive: 96%
26 | CCN(CC)CCNC(=O)c1ccc(-c2nc(CN3CCc4ccccc43)c(C)o2)cc1 | inactive: 73%
27 | O=C(Nc1ccc(C(F)(F)F)cc1)c1cc(S(=O)(=O)N2CCCc3ccccc32)ccc1F | inactive: 101%
28 | CCOc1ccc(S(=O)(=O)NCc2ccc3c(c2)CCN3C(=O)c2ccc(C)cc2)cc1 | inactive: 78%
29 | Cc1ccc(NCc2cc3cc4c(cc3n(CC(=O)Nc3ccc(F)cc3F)c2=O)OCCO4)cc1 | inactive: 70%
30 | Cc1nnc2c3ccccc3nc(Nc3ccccc3C(=O)O)n12 | inactive: 78%
31 | COc1ccc(S(=O)(=O)Nc2cc(-c3cn4ccc(C)cc4n3)ccc2C)cc1OC | inactive: 62%
32 | CCn1ccc2cc(S(=O)(=O)N3CCC(C(=O)NCC(C)c4ccccc4)CC3)ccc21 (stereo not drawn) | inactive: 94%
33 | O=C(COc1ccc(Cl)cc1)Nc1ccc2nc(SCC(=O)N3CCOCC3)sc2c1 | inactive: 84%
34 | Cc1ccc(NC(=O)CSc2nc3ccccc3nc2Cc2ccccc2)c(Cl)c1 | inactive: 99%
35 | Cc1ccc(Cl)cc1NC(=O)c1nnn(Cc2ccccc2)c1N | inactive: 80%
36 | Cc1ccc(-n2ncc(C(=O)NCc3ccccn3)c2C2CCN(C(=O)OC(C)(C)C)CC2)cc1C | inactive: 102%
37 | COc1cccc(CNC(=O)C2CCN(Cc3cc4ccccc4n3Cc3ccccc3)CC2)c1OC | inactive: 76%
38 | CCCOc1ccc(NC(=O)CC2C(=O)N(c3ccc(OC)cc3)C(=O)N2CCc2ccncc2)cc1 (stereo not drawn) | inactive: 98%
39 | CCc1nc2ccccc2n1CCCCOc1cccc(C)c1 | active: -2%
40 | COc1ccc(C2/C(=C(/O)c3ccccc3)C(=O)C(=O)N2CC(OC)OC)c(OC)c1 (stereo not drawn) | inactive: 78%
41 | CC(C)CC(=O)NCC(c1ccc2c(c1)OCO2)N1CCN(c2ccc(F)cc2)CC1 (stereo not drawn) | inactive: 124%
42 | Cc1ccc(/C(C#N)=C\c2cc(C)n(C)c2C)cc1 | inactive: 81%
43 | CCOC(=O)c1ccc(Oc2nc(C)nc3c2oc2ccccc23)cc1 | inactive: 63%
44 | O=C(/C=C/c1ccccc1)Nc1nc2n(n1)C(c1ccc(Cl)cc1)C=C(c1ccccc1)N2 (stereo not drawn) | active: 38%

Row | SMILES | survival
45 | Clc1ccc(CN2CCc3nc(N4CCN(c5ccccn5)CC4)ncc3C2)cc1 | inactive: 86%
46 | CC(=O)N1C(=O)NC(=O)C1(C)C | inactive: 92%
47 | O=C(CN1C(=O)C2(SCC(=O)N2c2cccc(F)c2)c2ccccc21)NCc1ccccc1Cl (stereo not drawn) | inactive: 67%
48 | Cc1ccc2ncc(C(=O)NCCc3ccc(S(N)(=O)=O)cc3)c(=O)n2c1 | inactive: 102%
49 | O=C1CCC(=O)N1c1ccccc1 | inactive: 98%
50 | Cc1cc2cc(C#N)c(N3CCOCC3)nc2cc1Cl | inactive: 77%
51 | COc1ccc(CCNC(=O)CCCn2c(=O)c3ccccc3n(Cc3ccc(C)cc3)c2=O)cc1OC | inactive: 81%
52 | COc1ccc(C)cc1NC(=O)COCc1cc(-c2cccs2)on1 | inactive: 69%
53 | CCOc1ccc(-c2cc(C#N)on2)cc1 | inactive: 101%
54 | CCOc1ccc(NC(=O)CSc2nc3c(c(=O)[nH]2)CCCC3)cc1 | inactive: 62%
55 | COc1cc(C2c3c(oc4ccc(F)cc4c3=O)C(=O)N2c2nc(C)c(C)s2)cc(OC)c1OC (stereo not drawn) | inactive: 157%
56 | O=C(CCS(=O)(=O)c1cc(Br)cc2c1N(C(=O)C1CC1)CC2)N1CCN(c2ccc(F)cc2)CC1 | inactive: 67%
57 | Cc1ccc(N(C)C(=O)Cn2cnc3onc(-c4ccc(F)cc4)c3c2=O)cc1C | inactive: 73%
58 | O=C(Nc1ccccc1)c1cnc[nH]1 | inactive: 71%
59 | CCC(=O)Nc1ccc(C)cc1-c1nc2ccccc2n(CC(=O)Nc2ccccc2Cl)c1=O | inactive: 75%
60 | COc1cc(OC)cc(C(=O)Nc2ccc3oc(-c4ccccc4C)nc3c2)c1 | active: 34%
61 | COc1ccc(NC(=O)Cn2c(=O)n(CC3CCCO3)c(=O)c3ccccc32)c(OC)c1 (stereo not drawn) | inactive: 97%
62 | COc1cccc(-c2cc(C(=O)Nc3cc(C)nn3-c3ccccc3)no2)c1 | inactive: 74%
63 | CCN(CC)S(=O)(=O)c1nnc(NC(=O)c2ccccc2Cl)s1 | inactive: 70%
64 | CC(C)CNc1nc(NC(C)(C)C)nc(Oc2ccc(=O)n(-c3ccccc3)n2)n1 | inactive: 68%
65 | Cc1ccc(CCNC(=O)c2cc3c(=O)oc4ccccc4c3s2)cc1 | inactive: 78%
66 | Cc1nn2c(C)c(C(=O)N3CCN(c4ccccc4)CC3)cnc2c1-c1ccccc1 | inactive: 94%

Row | SMILES | survival
67 | O=C(c1csc(Nc2ccccc2Cl)n1)N1CCCC1 | inactive: 103%
68 | COc1ccccc1OCCn1c(COc2cc(C)ccc2C)nc2ccccc21 | inactive: 61%
69 | COc1cc(NC(=O)CSc2nc3ccccc3nc2Cc2ccccc2OC)cc(OC)c1 | inactive: 80%
70 | C/C(=N\Nc1nc2sc3c(c2c2ncnn12)CC(C)(C)OC3)C(=O)O | inactive: 78%
71 | COc1cccc(CNC(=O)CNS(=O)(=O)c2ccc3nc(C)sc3c2)c1 | inactive: 82%
72 | CC(C)/C=N/NC(=O)c1ccccc1 | inactive: 78%
73 | CCOc1ccccc1Nc1sc(C(=O)c2ccccc2)c(N)c1C(=O)NCCc1ccccc1 | inactive: 99%
74 | O=C(c1ccc(Cl)cc1)N(Cc1ccco1)Cc1ccco1 | inactive: 97%
75 | CCC(C)(C)NS(=O)(=O)c1cc(-c2cc(C)no2)ccc1C | inactive: 84%
76 | CCN1c2ccccc2-c2nc(SCC(=O)Nc3cccc(C(F)(F)F)c3)ncc2S1(=O)=O | inactive: 70%
77 | COc1cc(O)ccc1C1CC(=O)Nc2c1c(=O)nc(SCc1ccccc1C)n2C (stereo not drawn) | inactive: 93%
78 | COc1ccc(CNc2oc(-c3ccc(COc4ccc(Cl)cc4)o3)nc2C#N)cc1 | inactive: 97%
79 | Cc1ccc(C)c(CN2C(=O)c3ccccc3S(=O)c3ccc(C(=O)N4CCC(C)CC4)cc32)c1 (stereo not drawn) | inactive: 85%
80 | S=c1nc[nH]c2c1[nH]c1ccccc12 | inactive: 103%
81 | COc1ccc(CNC(=O)c2c(Nc3ccc(OC)cc3OC)sc(C(=O)c3ccc(Cl)cc3)c2N)cc1 | inactive: 102%
82 | CCOC(=O)CSc1nc2sc3c(c2c(=O)n1Cc1ccccc1)CCC(C(C)(C)C)C3 (stereo not drawn) | inactive: 61%
83 | COc1ccc2c(c1)c1c(c(=O)n(CCc3ccccc3)c(=O)n1Cc1ccccc1)n2C | inactive: 90%
84 | O=C(c1cc2ccc3cccnc3c2[nH]1)N1CCN(c2cccc(C(F)(F)F)c2)CC1 | active: 0%
85 | Cc1ccc(NC(=O)c2oc3ccc(S(=O)(=O)N4CCCCC4)cc3c2C)cc1C | inactive: 84%
86 | Cc1ccc(C)c2sc(NC(=O)c3ccc(S(=O)(=O)N4CCCC4)cc3)nc12 | active: 25%
87 | CC(=O)N1CCOc2cc(S(=O)(=O)NCc3ccc(C)cc3)c(C)cc21 | inactive: 91%
88 | COc1ccc(N(C(=O)c2ccccc2F)S(=O)(=O)c2ccc3c(c2)n(C)c(=O)n3C)cc1 | inactive: 46%
